Data: article PMC4336329 (PLoS ONE, 2015)
The campaign covered roughly 310,000 compounds. About 2,200 (0.71%) showed an effect of 50% or more. Effects have a minus sign here. This is one part of the list.

What follows are compounds tested against human ether-à-go-go-related gene (hERG) potassium channel (human, UniProt Q12809) (assay: primary screen, population patch clamp on CHO cells stably expressing hERG).
Chain of human ether-à-go-go-related gene (hERG) potassium channel (Q12809 whole entry, looked up): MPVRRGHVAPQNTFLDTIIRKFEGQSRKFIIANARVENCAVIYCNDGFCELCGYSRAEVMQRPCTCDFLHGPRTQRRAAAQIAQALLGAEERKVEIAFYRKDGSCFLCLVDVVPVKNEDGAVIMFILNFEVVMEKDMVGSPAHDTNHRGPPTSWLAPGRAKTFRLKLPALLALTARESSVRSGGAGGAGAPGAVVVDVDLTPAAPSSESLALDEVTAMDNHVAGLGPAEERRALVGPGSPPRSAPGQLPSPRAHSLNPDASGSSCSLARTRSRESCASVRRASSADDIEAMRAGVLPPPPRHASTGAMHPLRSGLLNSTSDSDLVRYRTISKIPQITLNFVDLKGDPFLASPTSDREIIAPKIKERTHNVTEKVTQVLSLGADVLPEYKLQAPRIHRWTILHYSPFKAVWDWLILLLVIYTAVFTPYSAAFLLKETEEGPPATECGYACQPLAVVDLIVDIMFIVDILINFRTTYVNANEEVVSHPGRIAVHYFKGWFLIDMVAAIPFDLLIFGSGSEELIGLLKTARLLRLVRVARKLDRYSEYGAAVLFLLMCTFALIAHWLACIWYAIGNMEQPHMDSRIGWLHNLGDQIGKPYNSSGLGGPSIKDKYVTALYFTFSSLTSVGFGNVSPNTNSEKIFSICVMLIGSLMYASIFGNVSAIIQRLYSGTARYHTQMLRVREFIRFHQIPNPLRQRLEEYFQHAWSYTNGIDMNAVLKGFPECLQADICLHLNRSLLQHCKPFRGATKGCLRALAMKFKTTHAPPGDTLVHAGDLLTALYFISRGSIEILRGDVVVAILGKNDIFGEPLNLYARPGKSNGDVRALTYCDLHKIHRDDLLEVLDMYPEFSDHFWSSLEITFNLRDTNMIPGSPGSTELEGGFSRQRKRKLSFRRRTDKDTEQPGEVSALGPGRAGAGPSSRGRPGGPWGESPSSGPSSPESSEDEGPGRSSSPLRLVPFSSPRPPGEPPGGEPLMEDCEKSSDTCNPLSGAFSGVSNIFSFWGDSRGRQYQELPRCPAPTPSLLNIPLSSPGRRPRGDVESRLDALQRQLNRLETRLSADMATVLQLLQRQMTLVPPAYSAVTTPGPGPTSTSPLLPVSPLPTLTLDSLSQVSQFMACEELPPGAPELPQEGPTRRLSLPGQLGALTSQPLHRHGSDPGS

SMILES | hERG current change (%, negative = inhibition) at 1uM [%]
Cc1cccc2nc(-c3ccccc3)nc(N3CCC(O)(c4ccc(Cl)cc4)CC3)c12 | 12.6
O=C(NCCO)c1c(O)c2cccc3c2n(c1=O)CC3 | 10.1
Cc1snc(S(=O)(=O)Cc2ccccc2Cl)c1C#N | -1.58
O=c1cc(CN2CCN(c3cccc(Cl)c3)CC2)c2cc(O)c(-c3ccccc3)cc2o1 | 18.4
C(=N\Nc1ccccn1)/c1ccc(N2CCOCC2)cc1 | 10.8
Cc1ccc(C)c(NC(=O)CN(C)C(=O)CN2C(=O)C3CCCCC3C2=O)c1 (stereo not shown) | 14.2
Cc1ccc(NC(=O)COC(=O)CCc2ccc(S(=O)(=O)N3CCOCC3)cc2)cc1C | 7.57
COc1cccc(-c2coc3cc4oc(=O)c(CC(=O)O)c(C)c4cc23)c1 | 23.4
Cc1cc(OCC(=O)N2CCOCC2)ccc1NC(=O)c1ccccc1C | 18.2
Cc1ccc2cc(COC(=O)c3ccco3)c(=O)[nH]c2c1 | 7.94
CC1(C)CC(=O)C2=C(C1)Nc1ccccc1N(C(=O)C1CC1)C2c1ccco1 (stereo not shown) | 9.24
COC(=O)c1cccc(N(C(=O)CNC(=O)c2cccs2)C(C(=O)NCC2CCCO2)c2ccc(OC)c(OC)c2)c1 (stereo not shown) | 12
Cc1c(C(=O)N(C)CCc2cnn(C)c2)oc2c(F)cccc12 | 11.1
O=C(c1ccc(Cl)c(S(=O)(=O)N2CCCC2)c1)N1CCN(c2ccccn2)CC1 | 2.38
COc1ccccc1N1CCN(Cc2nc(N)nc(Nc3ccc(C)c(Cl)c3)n2)CC1 | -21.1
Cc1cccc(OCC(O)CN2C(C)(C)CC(O)CC2(C)C)c1C (stereo not shown) | -31.6
Cc1cc(NC(=O)CSc2cn(CCNC(=O)c3ccc(F)cc3)c3ccccc23)no1 | -0.366
CCCn1c(NCc2cc(C)ccc2O)nc2ccccc21 | 5.72
CCCn1cc(CN2CCC(C(=O)Nc3cccc(-c4cscn4)c3)CC2)c(C)n1 | 0.151
Cc1cc(C)c(C)c(Oc2ncnc(N)c2[N+](=O)[O-])c1 | 11.9
Cc1ccccc1-c1ccc(CN2CCN(C)C(CCO)C2)cc1 (stereo not shown) | 1.12
COc1cc(/C=N/Nc2nc(C)cc(=O)[nH]2)ccc1OC(=O)c1cccnc1 | 11.4

SMILES | hERG current change (%, negative = inhibition) at 1uM [%]
CCOc1ccccc1C(=O)OCC(=O)NCCNC(=O)COC(=O)c1ccccc1OCC | 15.3
Cc1[nH][nH]c(=O)c1C=NCc1cccc(C(F)(F)F)c1 | 13.4
Fc1ccccc1-c1nc(-c2ccc(Br)o2)no1 | 10.5
CCOC(=O)NNc1nncc2ccccc12.Cl | 8.4
COc1ccc2c(c1)c(C(=O)CN1CCN(C)CC1)c(C)n2Cc1ccccc1 | -9.79
O=C(N/N=C\c1ccco1)Nc1cccc(Cl)c1 | 4.23
C/C(=N\Nc1nc(-c2ccccc2O)nc2ccccc12)c1ccccc1 | 3.6
Cc1ccc(O)c(NC(=O)c2cc(C)no2)c1 | 6.38
Cc1nc(-c2nc(-c3c(C(=O)NNC(=O)Nc4ccccc4)noc3C)cs2)cs1 | 14.7
COc1ccccc1NC(=O)COC(=O)/C=C/c1ccc2c(c1)OCO2 | 9.01
CC(C)C[C@@H]1NC(=O)[C@H](CO)NC(=O)c2cc([N+](=O)[O-])cc(I)c2OCC[C@@H](C(N)=O)NC1=O | 5.89
COc1ccc(S(=O)(=O)NCc2ccc(C(=O)N3CCC4(CC3)OCCO4)cc2)cc1 | -7.81
CN(C(=O)COC(=O)c1ccc(Cl)c(S(=O)(=O)N2CCCCC2)c1)C1(C#N)CCCCC1 | -6.43
O=C(COc1ccc2ccccc2c1)N1CCN(CC2CC3C=CC2C3)CC1.O=C(O)C(=O)O (stereo not shown) | 12.7
Cc1cc2c(cc1S(=O)(=O)Nc1ccc(F)cc1)n(C)c(=O)c(=O)n2C | 11.4
FC(F)(F)c1ccc(N2CCN(c3ncnc4c3nnn4Cc3ccccc3Cl)CC2)cc1 | 15.9
Cc1nnc(NCc2ccncc2)c2ccccc12 | 2.74
O=C(Oc1ccc(N(Cc2cccs2)C2=NS(=O)(=O)c3ccccc32)cc1)c1ccccc1Cl | 0.886
OCCCn1c(C(CO)Nc2nc(-c3ccc(Cl)cc3)cs2)nc2ccccc21 (stereo not shown) | -2.81
O=C(O/N=C\c1ccc(N2CCOCC2)c([N+](=O)[O-])c1)c1ccccc1Cl | -12.8
CCOC(=O)N1[C@@H]2C=C(C)[C@@H]2[C@@H]2[C@@H](C)C(=O)N21 | 4.04
CS(=O)(=O)Nc1ccccc1C(=O)N1CCOCC1 | 10.2

SMILES | hERG current change (%, negative = inhibition) at 1uM [%]
COc1ccc(CNC(=O)c2c[nH]c3ccccc3c2=O)cc1 | 11.9
CC(C)CCNC(=O)c1cc2c(s1)-c1ccccc1S(=O)(=O)C2 | 13.1
C=CCn1c(SCC(=O)NC2CCCCC2)nnc1-c1ccccn1 | 5.62
Cc1ccc2c(c1)N(CC(=O)N1CCc3ccccc3C1)C(=O)CO2 | -3.29
Clc1ccc(-c2nc3ccccc3n2OCc2ccccc2)cc1 | -1.89
CC1Sc2ccc(S(=O)(=O)N3CCC(C(=O)NCc4ccco4)CC3)cc2NC1=O (stereo not shown) | 5.49
COCc1cc(=O)n2[nH]cc(-c3ccccc3)c2n1 | 12.9
O=C(NCC1CC1)C1(S(=O)(=O)c2ccccc2)CC=CC1 | 13.8
O=C(NCC1CCCO1)C1CCCN(S(=O)(=O)c2cccc(C(F)(F)F)c2)C1 (stereo not shown) | 10.4
Cc1ccccc1C(=O)NN1CC(C(=O)OCc2ccc(Cl)c(Cl)c2)CC1=O (stereo not shown) | 1.58
Cc1ccc(S(=O)(=O)/N=C(/Nc2ccc([N+](=O)[O-])cc2)c2ccccc2)cc1 | 8.66
O=C(NNc1cc(Cl)ccc1Cl)c1c(F)cccc1Cl | 14.3
CCOC(=O)C1CCCN(Cc2cccs2)C1 (stereo not shown) | 7
CCOC(=O)c1cc(-c2ccc(F)cc2)n(CC(=O)N2CCCC2)c1C | 8.68
CC(C)(C)c1ccc(OCC(=O)NNC(=O)Nc2ccccc2)cc1 | -5.74
Cc1sc2ncnc(N3CCC(C(=O)NNC(=O)COc4ccccc4F)CC3)c2c1C | -9.49
Cc1nc(C(=O)NCCC(C)C)sc1C1(C)CC(c2ccccc2)=NO1 (stereo not shown) | 4.71
Cc1ccc(N2C(=O)CC(SCC(=O)Nc3ccc(S(N)(=O)=O)cc3)C2=O)cc1 (stereo not shown) | 6.92
COc1ccc(Nc2nc(N3CCOCC3)nc(N3CCOCC3)n2)c(OC)c1 | 10.8
CC(C)CN(C(=O)COC(=O)CSc1ccccc1)c1c(N)n(Cc2ccccc2)c(=O)[nH]c1=O | 11.6
O=C1N=C(N2CCOCC2)S/C1=C/c1cc2c(cc1[N+](=O)[O-])OCO2 | 11.7
CCCCCC(O)CCc1n[nH]c(=S)n1-c1ccccc1 (stereo not shown) | 6.36

SMILES | hERG current change (%, negative = inhibition) at 1uM [%]
COc1ccc(C2Nc3ccccc3C(=O)N2Cc2ccco2)cc1COc1ccc([N+](=O)[O-])cc1 (stereo not shown) | 11.3
Cc1ccc(C(=O)N2CCCCC2)cc1NC1=C(Cl)C(=O)N(Cc2ccccc2)C1=O | 6.72
COc1cc2c(=O)n(Cc3ccccc3)c(=O)n(CC(=O)NCCc3ccccc3)c2cc1OC | 12
CC(C(=O)Nc1ccc2nccnc2c1)N1C(=O)C2C3C=CC(C3)C2C1=O (stereo not shown) | 13.1
CCOC(=O)c1[nH]c(C)c(C(=O)Nc2ccc(C)cc2C)c1C | 2.73
Nc1nonc1-n1nnc(C(=O)N/N=C/c2ccc(Br)cc2)c1-c1ccc2c(c1)OCO2 | 5.21
CC(C)(C)C(=O)Nc1c(Cl)cccc1OC(F)(F)F | 12.4
NC(=O)c1ccc(N2CCOCC2)nc1 | -8
COc1ccc(C(=O)Nc2ccnn2C2CCN(C(=O)c3cc(C)on3)CC2)cc1 | 10.4
O=C(COC(=O)Cc1cn2ccsc2n1)NCc1ccc2c(c1)OCO2 | -1.61
c1ccc(-c2noc(CSc3nnc(Cc4cccs4)n3-c3ccccc3)n2)cc1 | 13.2
CCC(C)C12CN3CCN(CC(C)(C3)C1O)C2 (stereo not shown) | 12.2
COc1ccc(-n2nc(C(=O)NCC(=O)NCCCN3CCOCC3)c3ccccc3c2=O)cc1Cl | 4.53
Cc1cc(C)c2nc(SCC(=O)N(C)C3CCS(=O)(=O)C3)cc(C)c2c1 (stereo not shown) | 14.8
COc1cc2c(cc1NCc1ccccn1)oc1ccccc12 | -8.02
CC(C)=CCc1c2c(c3occ(-c4ccc(O)cc4)c(=O)c3c1O)C=CC(C)(C)O2 | 15.3
COc1ccccc1CNC(=O)CN1C(=O)NC2(CCCc3sccc32)C1=O (stereo not shown) | 7.34
COc1cc(S(=O)(=O)Nc2ccc(C)cc2)ccc1N=Cc1c(C)[nH]n(-c2ccc(C)cc2)c1=O | 12.6
C/C(=N\NC(=S)NC(C)C)c1ccco1 | 0.11
